{"source": "paper PMC9389462", "about": "“Small molecule MMRi62 targets MDM4 for degradation and induces leukemic cell apoptosis regardless of p53 status” (Frontiers in Oncology, 2022)", "biological_target": "T1, FLAG-MDM4 (UniProt O15151 1-490)", "T1 construct": "MDM4; The plasmid is named HA-FLAG-MDM4, the protein in the pull-down FLAG-MDM4; also called HA-FLAG-MDM4", "T1 sequence (looked up)": "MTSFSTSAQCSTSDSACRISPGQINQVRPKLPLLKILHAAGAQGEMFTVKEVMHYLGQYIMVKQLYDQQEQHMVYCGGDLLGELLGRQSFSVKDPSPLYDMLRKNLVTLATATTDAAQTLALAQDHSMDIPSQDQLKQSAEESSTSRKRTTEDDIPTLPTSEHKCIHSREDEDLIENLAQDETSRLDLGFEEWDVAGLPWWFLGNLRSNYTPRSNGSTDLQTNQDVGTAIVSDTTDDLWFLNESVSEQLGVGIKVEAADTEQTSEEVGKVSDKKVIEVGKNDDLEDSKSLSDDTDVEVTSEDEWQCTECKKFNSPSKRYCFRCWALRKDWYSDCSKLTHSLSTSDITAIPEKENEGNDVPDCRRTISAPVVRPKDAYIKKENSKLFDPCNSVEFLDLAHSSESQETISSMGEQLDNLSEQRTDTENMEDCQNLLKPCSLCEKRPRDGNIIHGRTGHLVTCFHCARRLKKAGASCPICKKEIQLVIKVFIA", "assay": "pull-down; FLAG-MDM4 and HA-MDM2B proteins incubated with DMSO or 5 and 10 uM MMRi62 or MMRi67; FLAG-MDM4 pulled down by anti-FLAG beads, multiple washes; bound MDM2B detected by WB with anti-HA", "settings": "both partners purified", "data": [{"binder": "HA-MDM2B (natural protein, also called splice isoform MDM2B) not shown", "values": [{"measurement": "binding result", "value": "binds"}]}]}
